Among all 310,000 compounds or so, about 11,000 (3.5%) were called active. Inconclusive means that the source gave no clear call. Such entries were picked first, then a sample of the others. The call rests on the fitted dose curve; in most records, active means well fitted inhibition curve with a large enough effect; inconclusive means small, poorly fitted or top-dose-only effect, or effect the other way; inactive means flat fitted curve, though single readings scatter. Potencies of inconclusive entries are left out as doubtful fits.
Assay: VP16 counterscreen qHTS for inhibitors of ROR gamma transcriptional activity;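 further: Gal4-VP16 expression switched on by copper sulfate through the metallothionein promoter; nearly all actives have a fitted effect of over 50% in size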
Conditions: Drosophila S2 Gal4-VP16 UAS-luciferase, luminescence, 20 h; series mostly up to 53.6 µM
In the case of `COc1cc(S(=O)(=O)Nc2cc(C)cc(C)c2)ccc1F`, the Potency is reported as inconclusive [inhibitor, partial curve].
In the case of `CN(C)CCNc1ncnc2c1sc1nc(N3CCOCC3)c3c(c12)CC(C)(C)SC3`, the Potency is reported as inconclusive [inhibitor, single point].
For `O=C(COC(=O)c1ccc(Cl)c(Cl)c1)NC1CCCC1`, the Potency was “inactive”.
In the case of `O=C(CCCN1C(=O)c2ccccc2C1=O)N1CCCCC1`, the Potency is reported as inconclusive [activator, single point].
With `COc1cc(/C=N/n2cnnc2)ccc1Oc1nc(Cl)ncc1F` the Potency was inconclusive [inhibitor, single point].
In the case of `O=C(NN=C1CCN(Cc2ccccc2)CC1)c1cccc(S(=O)(=O)Nc2ccccc2Cl)c1`, the Potency is reported as inconclusive [inhibitor, single point].
In the case of `CCN(CC)c1ccc(/C=C2\NC(=O)NC2=O)cc1`, the Potency is reported as inconclusive [activator, single point].
With `Cc1cccc(C)c1NC(=O)/C(=C/c1ccco1)c1ccccc1` the Potency was active: 12.6 µM.
In the case of `CC(=O)N/N=C(\C)c1ccc(Br)cc1Br`, the Potency is reported as inconclusive [inhibitor, single point].
In the case of `S=C(NCCCCc1ccccc1)NCc1ccccc1`, the Potency is reported as inconclusive [inhibitor, single point].
In the case of `COc1c(O)c(O)cc2c1oc1c3ccccc3oc(=O)c21`, the Potency is reported as inconclusive [inhibitor, single point].
In the case of `CCC(C)Nc1nc(-c2ccccn2)nc2ccccc12` (stereo not given), the Potency is reported as active: 3.55 µM.
With `CCN(C(=O)CCN1C(=O)/C(=C/c2ccccc2)SC1=S)C1CCS(=O)(=O)C1` (stereo not given) the Potency was inconclusive [inhibitor, single point].
With `CC(C)(C)c1ccc(/C=C/C(=O)O)s1` the Potency was inconclusive [activator, single point].
For `CCc1ccc(NC(=O)N2CCc3ccccc3C2)cc1`, the Potency was “inactive”.
For `N#CC1=C(N)NC(SCC(=O)c2ccc(Cl)cc2)=C(C#N)C12CCCC2`, the Potency was inconclusive [inhibitor, single point].
In the case of `COCCSc1nnc(NC(=O)COc2ccc3c(c2)OCO3)s1`, the Potency is reported as inconclusive [inhibitor, partial curve, poor fit].
With `CCOC(=O)C1CCN(C(=S)Nc2ccc(S(N)(=O)=O)cc2)CC1` the Potency was “inactive”.
With `CCOC(=O)c1c(NC(=O)CN(CC)CC)sc2c1CCN(C(=O)OCC)C2` the Potency was inconclusive [inhibitor, single point].
For `O=C(CCS(=O)(=O)c1ccccc1)NC12CC3CC(CC(C3)C1)C2`, the Potency was “inactive”.
With `C[n+]1c(/C=C/c2ccc(O)cc2)ccc2ccccc21` the Potency was “inactive”.
For `O=[N+]([O-])c1cc(C(F)(F)F)ccc1NCCNC(=S)Nc1ccc(Cl)cc1`, the Potency was inconclusive [inhibitor, single point].
For `Cn1c(-c2sc3cc(C(F)(F)F)cnc3c2-c2ccccc2)n[nH]c1=S`, the Potency was inconclusive [inhibitor, partial curve].
In the case of `CCOC(=O)c1sc(N/N=C/c2ccccc2)nc1C`, the Potency is reported as inconclusive [inhibitor, single point].
For `CC(C)(C)c1nc(SCC(=O)NNC(=O)c2ccccc2)c2ccccc2n1`, the Potency was “inactive”.
In the case of `CCOc1ccc(NC(=O)C2CCN(S(=O)(=O)c3ccc4c(c3)NC(=O)C(C)S4)CC2)cc1` (stereo not given), the Potency is reported as inconclusive [inhibitor, single point].
In the case of `CCOc1ccc(N(C)C(=O)CCc2nnc3ccc(N4CCCCC4)nn23)cc1`, the Potency is reported as “inactive”.
For `CNC(=O)c1cc2c(=O)n3cc(C)ccc3nc2n(Cc2ccco2)c1=N`, the Potency was inconclusive [inhibitor, partial curve].
In the case of `COC(=O)C1=NNC2(C)C(=O)N(c3ccc(C)cc3)C(=O)C12` (stereo not given), the Potency is reported as “inactive”.
With `Cc1c(C(=O)N2CCCCC2)c(S(=O)(=O)Nc2ccc(F)cc2F)c(C)n1C` the Potency was “inactive”.
In the case of `Cc1ccc(/C=N/NC(=O)C2=NNC(c3ccccc3)(c3ccccc3)C2)c(O)c1`, the Potency is reported as active: 1.26 µM.
With `COc1ccc(/C=C/C(=O)NC2CCCCCCC2)cc1S(=O)(=O)N1CCOCC1` the Potency was inconclusive [activator, partial curve].
In the case of `COC(=O)CCC(=O)OC1(C)C(=O)C2=CN(CCCOC(C)C)C(c3ccc(OC)cc3)=CC2=C(Br)C1=O` (stereo not given), the Potency is reported as “inactive”.
In the case of `Cc1cc(C)n(-c2nc3ccccc3c(=O)n2OCC#N)n1`, the Potency is reported as active: 1 µM.
For `COc1ccccc1CNC(=O)COC(=O)c1cccnc1SCC(=O)NCc1ccccc1OC`, the Potency was “inactive”.
For `c1ccc2[nH]c(NC3=NCCC3)nc2c1`, the Potency was active: 11.2 µM.
With `O=C(CCSc1nnc2ccccn12)Nc1ccc(F)cc1` the Potency was “inactive”.
For `Cc1[nH]c2ccccc2c1C(=O)CSc1ccccn1`, the Potency was inconclusive [activator, partial curve].
In the case of `CC(C)c1ccc(NC(=O)CSc2ncccc2C(=O)Oc2cccc([N+](=O)[O-])c2)cc1`, the Potency is reported as inconclusive [inhibitor, single point].
In the case of `CCCCN(c1nc2ccccc2nc1Cl)S(=O)(=O)c1ccc(C)cc1`, the Potency is reported as active: 2.51 µM.
With `Clc1ccccc1C(c1ccccc1)(c1ccccc1)n1ccnc1` the Potency was inconclusive [inhibitor, single point].
For `O=C(NC(=S)Nc1cccc2c(O)cccc12)c1cccc(Br)c1`, the Potency was inconclusive [inhibitor, single point].
For `CC(=O)c1ccc(NC(=O)c2cnn3ccccc23)cc1`, the Potency was inconclusive [inhibitor, single point].
With `Cc1cc(C)n2ncc(C(=O)NCCc3ccccc3)c2n1` the Potency was inconclusive [activator, single point].
In the case of `CN(C)c1ccc(NS(=O)(=O)c2cc3c4c(c2)CC(=O)N4CCC3)cc1`, the Potency is reported as “inactive”.
In the case of `CCn1c(CSCc2ccc(Cl)cc2)nnc1SCC(=O)Nc1cccc(C(=O)O)c1`, the Potency is reported as “inactive”.
With `CCC(=O)Nc1ccc(NC(=S)NC(=O)/C=C/c2ccccc2)cc1` the Potency was inconclusive [inhibitor, single point].
For `Cc1ccsc1C1Nc2ccccc2C(=O)N1O` (stereo not given), the Potency was inconclusive [inhibitor, single point].
In the case of `COC(=O)Cn1c(=NC(=O)c2nc3ccccc3s2)sc2cc(S(N)(=O)=O)ccc21`, the Potency is reported as inconclusive [inhibitor, single point].
In the case of `COc1ccc(S(=O)(=O)Nc2cccc(SC)c2)cc1OC`, the Potency is reported as inconclusive [inhibitor, single point].
With `CNc1ccnc(-c2ccccc2C)n1` the Potency was “inactive”.
In the case of `Cc1ccc(NC(=O)Cc2cn(C)c3ccccc23)cc1F`, the Potency is reported as inconclusive [activator, single point].
With `CCC(Cc1ccccc1)NC(=O)C1CCC(CNc2c(N3CCCC3)c(=O)c2=O)CC1` (stereo not given) the Potency was “inactive”.
In the case of `CCOC(=O)c1ccc(Nc2nc(-c3cccnc3)nc3ccccc23)cc1`, the Potency is reported as inconclusive [inhibitor, single point].
For `O=C(O)c1ccc(CNC(=O)c2ccc3c(c2)C(=O)N(Cc2cccnc2)C3=O)cc1`, the Potency was “inactive”.
With `NNC(=O)CN1C(c2ccccc2Br)=Nc2ccc(Br)cc2C1c1ccccc1` (stereo not given) the Potency was inconclusive [inhibitor, single point].
For `O=[N+]([O-])c1ccc(O)c(/C=N/Nc2ccc(Cl)nn2)c1`, the Potency was active: 1.41 µM.
In the case of `N#Cc1c(-c2cccs2)cc(C2CC2)nc1SCC(N)=O`, the Potency is reported as “inactive”.
For `CN1CCCN(Cc2nc(-c3ccc(Cl)cc3)no2)CC1`, the Potency was “inactive”.
With `CCc1ccc(CCC(=O)Nc2ccc(Cl)cc2)o1` the Potency was “inactive”.
For `O=C(Nc1nc2ccccc2s1)C1=NN(c2ccccc2)C(=O)CC1`, the Potency was inconclusive [inhibitor, single point].
With `Cc1ccc(NC(=O)c2sc3ncn(CC(=O)N4CCOCC4)c(=O)c3c2C)c(Br)c1` the Potency was inconclusive [inhibitor, single point].
With `CC(C)Cc1nnc(NC(=O)c2ccc([N+](=O)[O-])cc2)s1` the Potency was inconclusive [inhibitor, single point].
For `COCc1nnc(NC(=O)c2cc(Cl)ccc2OC)s1`, the Potency was “inactive”.
For `O=C(NCCOc1ccc(F)cc1)c1ccccc1SCc1ccccc1`, the Potency was inconclusive [activator, single point].
For `O=c1ccc(-c2n[nH]c(=S)n2-c2ccc(F)c(Cl)c2)n[nH]1`, the Potency was “inactive”.
In the case of `Cc1cc(NC(=O)c2ccccc2F)n(-c2nc3ccccc3[nH]2)n1`, the Potency is reported as active: 4.47 µM.
For `Nc1c(C(=O)Nc2ccccc2)c2nc3ccccc3nc2n1CCCN1CCOCC1`, the Potency was inconclusive [inhibitor, single point].
For `CCCCNC(=O)N1c2ccccc2CC1C` (stereo not given), the Potency was inconclusive [inhibitor, single point].
For `CO/N=C/c1ccc(N2CCN(C(=O)c3ccc(Cl)cc3Cl)CC2)c([N+](=O)[O-])c1`, the Potency was inconclusive [inhibitor, single point].
In the case of `CSc1ccccc1OCc1cc(C(=O)N[C@H]2CCCCNC2=O)no1`, the Potency is reported as inconclusive [activator, single point].
With `O=C(COc1ccc2c(c1)OCO2)Nc1nncs1` the Potency was “inactive”.
With `Cc1cccc(C)c1NC(=S)N(Cc1cccs1)C1CCCC1` the Potency was inconclusive [inhibitor, full curve, poor fit].
For `COc1ccc(-c2cn(-c3ccc(C)c(Cl)c3)c(=S)[nH]2)cc1OC`, the Potency was active: 10 µM.
With `CCOC(=O)C1CCN(c2nc(-c3ccccc3)nc3c2oc2ccccc23)CC1` the Potency was “inactive”.

Reference: PubChem BioAssay AID2546 (National Center for Advancing Translational Sciences (NCATS), 2010)
Potency means the concentration at half of the fitted maximal effect; tags describe the fitted curve by direction and shape.
